# From publication PMC7819943, “Rice protein-binding microarrays: a tool to detect cis-acting elements near promoter regions in rice”
# The other results are listed elsewhere or left out.
# Target: T1, OsWOX13 (Oryza sativa, UniProt Q5QMM3 1-267)
# T1 sequence: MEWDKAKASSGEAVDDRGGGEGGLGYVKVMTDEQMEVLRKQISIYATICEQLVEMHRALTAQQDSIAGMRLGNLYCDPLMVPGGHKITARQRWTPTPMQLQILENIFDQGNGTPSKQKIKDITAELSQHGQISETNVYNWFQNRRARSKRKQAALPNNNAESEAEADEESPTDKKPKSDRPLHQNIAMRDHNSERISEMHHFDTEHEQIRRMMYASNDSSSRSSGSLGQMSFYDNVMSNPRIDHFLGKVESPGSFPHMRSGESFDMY
# Assay: protein-binding microarray (RPBM); PBS, 2% BSA, 51.3 ng/ul salmon testes DNA, 50 uM zinc acetate, 200 nM TF, 25 C, 1 h; high values mean tight binding
# Settings: protein: recombinant; tags: N-terminal polyhistidine and DsRed monomer fusion (pET32a); label: CyDye5-dUTP incorporated in the synthesized complementary strand; 3' TTTTT single-stranded linker to array surface; dsDNA, one strand shown
# Procedure, shortened: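 Polyhistidine-tagged DsRed fusions of transcription factors, joined at the N-terminus, were expressed in E. coli BL21-CodonPlus and isolated on Ni–NTA. They were incubated at 200 nM for 1 h at 25 °C on a custom Agilent array, double-stranded and BSA-blocked, in PBS with 2% BSA, salmon testes DNA and 50 µM zinc acetate. The binding signal is per-feature fluorescence intensity (arbitrary units) read on an Axon 4000B scanner after washing.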
row,Sequence,binding signal
1,TTTCGCTAATTTGAACAAGTTTAGCAGATTGCCATGCGTACGGAGTCACCTAGTGCAG,13600 fluorescence intensity (a.u.)
2,AACTCAATTAATATTAATTAGTATGTTAATAACAAACTGACGGAGTCACCTAGTGCAG,34000 fluorescence intensity (a.u.)
3,CACAAACAGATTCCACGGTGATCCGAGTAGCAACTGGGAACGGAGTCACCTAGTGCAG,4730 fluorescence intensity (a.u.)
4,ATGTGGTACTAATTAACACTTGTTCTGTTGTTGCTAATATCGGAGTCACCTAGTGCAG,3170 fluorescence intensity (a.u.)
5,CCAGATTTGAAAATTTTGAAAACTTTCAAATCGAGATTTGCGGAGTCACCTAGTGCAG,5340 fluorescence intensity (a.u.)
6,TTAACTAATAAATAAGTATTAACTATTTATATCATATCTACGGAGTCACCTAGTGCAG,4490 fluorescence intensity (a.u.)
7,ATCCAAGATTGCAGTCACACTTTGATGCATGAATATTACTCGGAGTCACCTAGTGCAG,5860 fluorescence intensity (a.u.)
8,GAGCCTAATTAATCCATGACTAGCCTATGTGATGCTACAACGGAGTCACCTAGTGCAG,17900 fluorescence intensity (a.u.)
9,AGACTTGTTTGATTAGATTTGCCCGGAGGACAAAGCAGAGCGGAGTCACCTAGTGCAG,23000 fluorescence intensity (a.u.)
10,CCTAATTTAGTTCAAATTTCCTGCCCGTTAATATTGGCTTCGGAGTCACCTAGTGCAG,24500 fluorescence intensity (a.u.)
11,ATCATGGACTAATTAGGCTCAAAAGATTCGTCTCGCGATTCGGAGTCACCTAGTGCAG,7730 fluorescence intensity (a.u.)
12,TCTCATATGACTGATATGTTCCTCCTCCTCCTCCTTTGGTCGGAGTCACCTAGTGCAG,4670 fluorescence intensity (a.u.)
13,GATGATGATGATTTTGGTAGGAGATATGGATCGTGTTGGTCGGAGTCACCTAGTGCAG,16600 fluorescence intensity (a.u.)
14,TGAGTAATCACAGTCGATTTCTTGTTCAATTGATCTCCCTCGGAGTCACCTAGTGCAG,6130 fluorescence intensity (a.u.)
15,AAGAAGGAATAATTAACTATTTGCTACTCTTATGGGTGATCGGAGTCACCTAGTGCAG,6260 fluorescence intensity (a.u.)
16,CATAGATATTGTCATATACTCGAACAAAATAATTTTCAGTCGGAGTCACCTAGTGCAG,45000 fluorescence intensity (a.u.)
17,AATAAACTGTTTTAAATTTGGTGCCCATCGGGTGATGTGACGGAGTCACCTAGTGCAG,9920 fluorescence intensity (a.u.)
18,TTAGTTAAATTTAAAATAGTTTAACTTTGACTAAAGTTGACGGAGTCACCTAGTGCAG,5370 fluorescence intensity (a.u.)
19,CGGCCCAAATTCGTCCATCACTTCCCATCCGGCCCATTAACGGAGTCACCTAGTGCAG,3370 fluorescence intensity (a.u.)
20,CACCTGTCATATATAAACTGCGTCTTAGAGTCCGTGCTACCGGAGTCACCTAGTGCAG,4000 fluorescence intensity (a.u.)
21,CGTGACTAAATATATGATAAATGCATTGTATGAAATAGAGCGGAGTCACCTAGTGCAG,9730 fluorescence intensity (a.u.)
22,TTGAATAAACTGATGGGACGTACGTTGCCCGCCGGATTGACGGAGTCACCTAGTGCAG,8030 fluorescence intensity (a.u.)
23,CTGCATGCTAATCAATCATCTGTCAAGGATTAGTAACATACGGAGTCACCTAGTGCAG,17900 fluorescence intensity (a.u.)
24,CACTTAATTTGCATTCATGCTAATAAATTACATCTATGGTCGGAGTCACCTAGTGCAG,49100 fluorescence intensity (a.u.)
25,GTAGCATTAAATTGAAGTATAGAATAGTGGTGTTTGCATTCGGAGTCACCTAGTGCAG,5440 fluorescence intensity (a.u.)
26,TTGTAATTAAGATCATTGATTATGATACAATTAATGCATACGGAGTCACCTAGTGCAG,36700 fluorescence intensity (a.u.)
27,AGTTATGTGATTATGTTGTTGTTGTTGTTCTTGGATGTGACGGAGTCACCTAGTGCAG,8560 fluorescence intensity (a.u.)

row,Sequence,binding signal
1,TTTATTTAATTGATTCGATGAACTTTGTGCCATTAAAATTCGGAGTCACCTAGTGCAG,35000 fluorescence intensity (a.u.)
2,ACCCTAATTCTCCTAATCTCTTAGGAAATATGGAAGAAGCCGGAGTCACCTAGTGCAG,3170 fluorescence intensity (a.u.)
3,GCTCTATCACAAAATAAACTAGAGTTATGAAGCTGGATTTCGGAGTCACCTAGTGCAG,4850 fluorescence intensity (a.u.)
4,CTGATCTTCTTTAATTAGACGGACACCATGACCACCAGATCGGAGTCACCTAGTGCAG,7190 fluorescence intensity (a.u.)
5,AAAATCGATTGTAAATTGCCTTTATCGAAATTAGGATCTACGGAGTCACCTAGTGCAG,4860 fluorescence intensity (a.u.)
6,TAAACAGATGGAGATATAATTATTCATGCCGCTAATTTGTCGGAGTCACCTAGTGCAG,15900 fluorescence intensity (a.u.)
7,GAGGAAGAAGAGGGGATTGACAATGACAGGCGGGGCACACCGGAGTCACCTAGTGCAG,12800 fluorescence intensity (a.u.)
8,TGAAATAAAATTTTGAAAATTAATTTTGAAGTTGACTTTGCGGAGTCACCTAGTGCAG,13300 fluorescence intensity (a.u.)
9,GCTCGATTGCCTTTTCATCATTCACATTGTTCTTCTTCTTCGGAGTCACCTAGTGCAG,11600 fluorescence intensity (a.u.)
10,GCTTGATATAGATCATTAGATCGTTCCCATTGGTTGGCTACGGAGTCACCTAGTGCAG,8120 fluorescence intensity (a.u.)
11,ATCATGGCAAATGATTGAAACTTTGAAGTAACGTTGGTGCCGGAGTCACCTAGTGCAG,38800 fluorescence intensity (a.u.)
12,GTGCATTTCTGATTAAATATGTTGCATTGCAGCTATTGGCCGGAGTCACCTAGTGCAG,3750 fluorescence intensity (a.u.)
13,TCTAAATTTGTAGGCACTCTACATGAGGCAAGTCGTTACACGGAGTCACCTAGTGCAG,3900 fluorescence intensity (a.u.)
14,GATTCAATGATGGATTTAATAAAACTAATTTGGTATTGCTCGGAGTCACCTAGTGCAG,18700 fluorescence intensity (a.u.)
15,TCACTAACAGATGTACCACTGTTTTATAAATTCTAAAATGCGGAGTCACCTAGTGCAG,8690 fluorescence intensity (a.u.)
16,TCTCGAATTAATTAGGGTATCATATTATTCTCATATGAAACGGAGTCACCTAGTGCAG,15000 fluorescence intensity (a.u.)
17,TTGATTCAATCAACATATTTGATTCACAAATTTAGTTGCTCGGAGTCACCTAGTGCAG,50100 fluorescence intensity (a.u.)
18,TATGGATCTAGATTTTCAATTACATTGATAACATTTGAATCGGAGTCACCTAGTGCAG,3300 fluorescence intensity (a.u.)
19,GCTTAAACAGCAAGATAGTCATGATTAGGCCAAAGATATCCGGAGTCACCTAGTGCAG,6570 fluorescence intensity (a.u.)
20,ACCAAATTTAGTCGTTAACAGTACTTTATGTACTTAGAGACGGAGTCACCTAGTGCAG,6830 fluorescence intensity (a.u.)
21,AATTTTGCCTGATGAATTGAGAATTGACTCGTAACTTGGACGGAGTCACCTAGTGCAG,4150 fluorescence intensity (a.u.)
22,CATCAAATTTGACTAAGTTTAATGACAAATATAATAATATCGGAGTCACCTAGTGCAG,3460 fluorescence intensity (a.u.)
23,TTTTATGTTATATATATATAATTATTTGCAAGAAATTCATCGGAGTCACCTAGTGCAG,3590 fluorescence intensity (a.u.)
24,CTTTAATTAATTTAACTGCCATTATTATGTACTTTCAGAGCGGAGTCACCTAGTGCAG,63200 fluorescence intensity (a.u.)
25,GCACGATTAATTATATATTAATAACTATTATATATTTAAACGGAGTCACCTAGTGCAG,6940 fluorescence intensity (a.u.)
26,ATGTATATTAATTACTAGCCAAATGGTTAGCATGATTACTCGGAGTCACCTAGTGCAG,10900 fluorescence intensity (a.u.)
27,CTAGATGATTGGCTATCATCACCTGTTCACAATCTTATGTCGGAGTCACCTAGTGCAG,61900 fluorescence intensity (a.u.)
